Screen size: about 340,000 compounds; about 6,900 (2%) were called active. No stated cut-off is given here; in the data, active means inhibition above about 30%; inactive means below that, where a call was filed. Only a part is listed here, and it is no random draw. Entries without a call were filed so in the source.

This assay concerns the target D(2) dopamine receptor (Homo sapiens) (UniProt P14416). Nature of the assay: HTS Assay for Allosteric Antagonists of the Human D2 Dopamine Receptor: Primary Screen for Antagonists. Further: 0% is about no effect. The settings on record: HEK293 TREx D2 cells, calcium flux, dopamine EC80; at 10 µM; stronger effect = higher value. The method in brief: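 Cells plated overnight at 30 C with tetracycline; no-wash calcium dye, 30–90 min RT; 10 s baseline; compound pinned; 180 s read; EC80 dopamine added; another 180 s read.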
Sequence of UniProt P14416 (P14416 whole entry, looked up): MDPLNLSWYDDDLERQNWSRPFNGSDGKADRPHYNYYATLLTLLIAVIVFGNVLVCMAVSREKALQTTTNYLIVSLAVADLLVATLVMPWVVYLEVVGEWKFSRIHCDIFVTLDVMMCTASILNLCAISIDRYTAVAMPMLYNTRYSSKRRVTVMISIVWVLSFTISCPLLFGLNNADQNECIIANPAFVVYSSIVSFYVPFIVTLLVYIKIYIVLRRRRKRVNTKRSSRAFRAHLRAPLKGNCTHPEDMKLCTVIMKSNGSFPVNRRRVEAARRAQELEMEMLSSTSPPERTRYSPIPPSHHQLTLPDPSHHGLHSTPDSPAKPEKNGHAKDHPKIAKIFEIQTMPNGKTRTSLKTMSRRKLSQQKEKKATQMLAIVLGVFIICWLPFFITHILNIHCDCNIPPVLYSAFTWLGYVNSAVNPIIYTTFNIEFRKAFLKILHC
A general note: Calcium assays in cells follow changes in intracellular calcium, usually with a dye or a luminescent sensor.
Regarding `COCCNC(=O)c1c(NC(=O)c2cc(=O)c3cc(Cl)ccc3o2)sc2c1CCCC2`, the inhibition (as a rule, the drop in the measured response relative to a control, in per cent) is 6.77%.
To `CC(=O)c1ccc(C(=O)N(Cc2cccnc2)c2nc3c(C)c(C)ccc3s2)cc1` belongs 5.09%.
On to `CCOC(=O)N1CCN(C(=O)c2ccc3c(c2)N(Cc2cccc(Cl)c2)C(=O)c2ccccc2S3=O)CC1` (stereo not given), for which the inhibition was -9.73%.
To `Cc1ccc(-c2nc3ccccn3c2Nc2ccc3c(c2)OCCO3)o1` belongs 2.77%; to `O=C1CN(C(=O)COc2ccc(Cl)cc2)C(c2ccc(F)cc2)c2cc(Cl)ccc2N1` (stereo not given), -10.3%; to `O=C(Nc1ccc(Br)cc1)C1CCN(c2ncccn2)CC1`, -15%.
With `COCCOC(=O)c1c(C)oc2ccc(OCc3ccccc3)cc12` the figure was active: 64.5%; with `CCOc1ccc(NC(=O)C2CCN(S(=O)(=O)c3c(C)noc3/C=C/c3ccco3)CC2)cc1`, 9.83%.
For `c1ccc(N2CCN(Cc3cnc(N4CCOCC4)s3)CC2)cc1`, the inhibition is active: 38.3%.
To `CCOC(=O)c1ccccc1NC(=O)N1CC(C)Oc2ccc(C)cc21` (stereo not given) belongs -2.33%; to `CCOc1ccc(NC(=O)CCn2cccn2)cc1`, 3.1%.
Consider `CCCCOC(=O)/C(C#N)=C\c1ccc(-c2ccc(Cl)cc2)o1`, for which the inhibition is -1.66%.
To `Nc1nnc(SCC(=O)NNC(=O)c2ccccc2)s1` belongs active: 37.2%; to `O=C(c1ccccc1F)N1c2nc(-c3ccco3)nn2C2(CCCCC2)[C@@H]2CCCC[C@@H]21`, 6.31%; to `Clc1cccc(-c2ccc(CNCCCN3CCOCC3)o2)c1`, active: 91.6%.
With `COc1ccccc1CNC(=O)c1ccc(-n2c(C)cc3c2CCCC3)cc1` the figure was 7.91%.
To `Cc1c(Cl)cccc1NS(=O)(=O)c1ccc(NS(=O)(=O)c2ccc3c(c2)OCCO3)cc1` belongs -12.1%; to `COc1ccc(Cl)cc1NC(=O)c1cnc(N2CCCCC2)c2ccccc12`, 2.84%.
On to `CCOC(=O)Cn1c(=O)oc2cc(S(=O)(=O)NC(C)c3ccccc3)ccc21` (stereo not given), for which the inhibition was -6.34%.
Consider `CCc1ccc(CN(C(=O)Nc2cccc(Cl)c2)c2ccccn2)cc1`, for which the inhibition worked out at 11.2%.
With `COC(=O)c1nc2n(n1)C(c1cc(OC)ccc1OC)C=C(c1ccc(Br)cc1)N2` (stereo not given) the figure was -18.9%; with `COc1ccc(C2=C(C)C(N3CCN(c4ccc(OC)cc4)CC3)=NS2(=O)=O)cc1`, -8.75%.
As for `CCC(CC)C(=O)Nc1nnc(S(=O)(=O)N2c3ccccc3CC2C)s1` (stereo not given), the inhibition was -11.4%.
In the case of `CC(C)OC(=O)c1ccc(NC(=O)c2cncc(Br)c2)cc1`, the inhibition was active: 44.6%.
For the compound `CN(C(=O)c1ccc2c(c1)N(Cc1ccc(F)cc1)C(=O)c1ccccc1S2(=O)=O)C1CCCCC1`, the inhibition is -15.7%.
On to `COc1ccc(C(=O)NNc2ncnc3c2cnn3-c2ccc(C)cc2C)cc1`, for which the inhibition was determined as 21.5%.
Turning to `CC(=O)c1ccc(NC(=O)C(C)N2CCN(C/C=C/c3ccccc3)CC2)cc1` (stereo not given), the inhibition is active: 47%.
`CCOCCCn1c(=N)c(C(=O)NC(C)c2ccccc2)cc2c(=O)n3cccc(C)c3nc21` (stereo not given): the inhibition was 1.37%.
To `Cc1cc(N2CCC(C(=O)Nc3ccccc3Cl)CC2)n2nc(C)c(-c3ccc(Cl)cc3)c2n1` belongs -3.44%; to `Fc1cccc(-c2nnn3c2nc(NCc2ccc4c(c2)OCO4)c2ccccc23)c1`, 14.6%.
With `Cc1ccc2occ(CC(=O)Nc3ccc(Cl)c(C(F)(F)F)c3)c2c1`, the inhibition is -12.2%.
With `Cc1nc(N2CCCC2)ncc1C(=O)NCc1ccc(F)cc1` the figure was 16.1%; with `Cc1cn2c(=O)c(S(=O)(=O)Nc3ccc(N4CCOCC4)cc3)c(C)nc2s1`, -12.7%.
As to `Fc1ccc(F)c(CN2CCN(c3ncccn3)CC2)c1`, the inhibition was active: 78.7%.
On to `O=C(c1ccco1)N1CCN(Cc2ccc(Br)cc2)CC1`, for which the inhibition is active: 79.7%.
To `COCCNC(=O)c1cnn(-c2cccc(C)c2)c1-n1cccc1` belongs 0.0012%.
With `COc1cc2ncc3c(-c4ccccc4)nn(CC(=O)NC4CCCCC4)c3c2cc1OC`, the inhibition was 2.39%.
As to `CC1CCN(S(=O)(=O)c2cc(C(=O)NCc3ccccc3)n(C)c2)CC1`, the inhibition came out at 16.8%.
Regarding `CCc1ccc(-n2nc(CO)c(C(=O)NCc3cccnc3)n2)cc1`, the inhibition came to 12.2%.
Turning to `O=C(c1ccc2c(c1)N(Cc1ccc(Cl)cc1)C(=O)c1ccccc1S2(=O)=O)N1CCN(Cc2ccccc2)CC1`, the inhibition amounted to 4.72%.
To `Cc1cc(C)cc(NC(=O)CCc2c(C)nc3c(c2C)c(=O)n(C)c(=O)n3C)c1` belongs 3.26%; to `Cc1ccc(CCNC(=O)CCn2nc(-c3ccc(Cl)cc3)ccc2=O)cc1`, 18.4%.
With `CCN1CCN(C(=O)c2ccc3c(c2)c(C)c(C)n3Cc2ccccc2)CC1` the figure was active: 37.5%.
In the case of `O=S(=O)(c1ccc(Br)cc1)c1nnn2c1nc(NCCc1ccccc1)c1sccc12`, the inhibition was -5.91%.
Take `Cc1nc2ccc(S(=O)(=O)NC(C(=O)N3CCN(c4cccc(Cl)c4)CC3)C(C)C)cc2s1` (stereo not given): the inhibition is 23.6%.
In the case of `Cc1ccc(-c2onc(C)c2C)cc1S(=O)(=O)Nc1cccc(Cl)c1C`, the inhibition is 0.32%.
With `COc1ccc(N2C(=O)CCSC23C(=O)N(Cc2ccc(F)cc2)c2ccccc23)cc1` (stereo not given) the figure was 9.46%; with `CCc1ccc(C(=O)NC2=NC(c3cc(OC)ccc3OC)CC(=O)N2)cc1` (stereo not given), 14.6%; with `CC(=O)Nc1ccc(NC(=O)C(c2ccccc2)N2Cc3ccccc3C2=O)cc1` (stereo not given), 4.74%.
With `COC(=O)c1ccc(-c2nc(-c3ccc(OC)c(OC)c3)no2)cc1` the figure was 2.79%; with `O=C(Nc1ccc(-c2nc3cc(NC(=O)c4ccc(Cl)cc4)ccc3o2)cc1)c1ccc(Cl)cc1`, 2.15%; with `CCCN(CCC)C(=O)C1CCCN(S(=O)(=O)c2cc(Br)cc3c2N(C(=O)CC)CC3)C1` (stereo not given), -19.2%.
`COc1ccc(-c2cc(C(F)(F)F)n3nc(C(=O)Nc4sc5c(c4C(=O)OC(C)C)CCC(C)C5)cc3n2)cc1` (stereo not given): the inhibition turned out to be 11.3%.
To `Cc1ccccc1C(=O)Nc1nnc(S(=O)(=O)N(C)c2ccc(Cl)cc2)s1` belongs 21.6%.
To `COC(=O)c1sccc1S(=O)(=O)N(CC(=O)Nc1ccc(C)c(F)c1)c1ccc(C)c(C)c1` belongs 5.99%; to `Cc1ccccc1Cn1c(=O)n(CCc2ccccc2)c(=O)c2sc3ccccc3c21`, 7.73%; to `Cc1ccc(NC(=O)c2sc3nc(-c4ccncc4)ccc3c2N)cc1`, 2.57%.
Regarding `CCOc1ccc(S(=O)(=O)c2c(C(=O)c3ccc(C)c(C)c3)cnc3ccccc23)cc1`, the inhibition was -12.9%.
With `CCOC(=O)c1ccc(Nc2nnc(C(C)(C)C)c(=O)[nH]2)cc1` the figure was active: 53.1%; with `COc1cc(NC(=O)C(NS(=O)(=O)c2ccc3c(c2)CCCC(=O)N3)C(C)C)cc(OC)c1` (stereo not given), -2.06%.
With `Cc1ccc(NC(=O)c2c(C)oc3ccc(O)c(CN(C)Cc4ccccc4)c23)c(C)c1` the figure was 2.31%; with `COc1ccc(OC)c(CNc2ncnc3c2nc2n3CCCC2)c1`, -4.76%.
For the compound `CCc1c(C)nc(SCc2nc(-c3ccccc3C)no2)[nH]c1=O`, the inhibition was found to be 2.11%.
`CCc1ccc(CNC(=O)c2sc3nc[nH]c(=O)c3c2C)cc1`: the inhibition was -17.2%.
Consider `O=C(COc1ccc(F)cc1)Nc1ccc(S(=O)(=O)N(Cc2ccccc2)c2ccccc2)cc1`, for which the inhibition is -16.2%.
With `O=c1cc(CSc2ccccc2)[nH]c2ccc(F)cc12`, the inhibition is -6.7%.
To `COc1ccc(NC(=O)CCn2c(-c3ccc(F)cc3)cc(C(C)=O)c2C)c(OC)c1` belongs -4.67%.
Turning to `CCCNc1ncnc2c1c(-c1ccccc1)cn2-c1ccc(OCC)cc1`, the inhibition came to 19.1%.
With `CCCOc1ccc(C(=O)Nc2ccc(-c3cc4ccccc4oc3=O)c(C)c2)cc1` the figure was 0.979%; with `CCc1ccc(NC(=O)c2ccc(NS(=O)(=O)c3c(C)noc3C)cc2)cc1`, -13.4%; with `CCCCCCCNC(=O)C1(CC2CC(c3ccc(Cl)cc3)=NO2)CCN(C(=O)c2cc(OCC)c(OCC)c(OCC)c2)CC1` (stereo not given), active: 43.9%.
With `CCc1cccc(C)c1NC(=O)c1cc(S(=O)(=O)N2CCCCCC2)cn1C` the figure was 2.52%; with `O=C(NC1CC1)c1ccc(Cn2c(SCc3ccc(F)cc3)nc3cccnc32)cc1`, 0.0752%.
With `COc1ccc(-c2cc(C(F)(F)F)nc(SCCC(=O)Nc3cccc(OC)c3)n2)cc1` the figure was 16.9%; with `Fc1ccccc1/C=N/n1cc(-c2ccccc2)[nH]c1=S`, active: 37.8%; with `Cc1ccc(Cl)cc1N1CCN(C(=O)c2nn(C)c3c2CS(=O)(=O)c2ccccc2-3)CC1`, 1.31%.
As to `Cc1ccc(Cl)cc1NC(=O)c1cc(CN2CCCC2)on1`, the inhibition is -0.542%.
To `COc1ccc(CCNC(=O)CCc2cn(Cc3ccc(F)cc3)c3ccccc23)cc1OC` belongs -5.99%.
To `Cc1ccc(-c2nc(S(=O)(=O)c3ccccc3)c(SCC(=O)NC3CCCCC3)o2)cc1` belongs 11.3%; to `CC(C)CC(NC(=O)C1CCCCC1)C(=O)Nc1cccc(C(F)(F)F)c1` (stereo not given), 4.23%.
To `COc1ccccc1N1CCN(S(=O)(=O)CCNC(=O)COc2ccccc2F)CC1` belongs 13.4%.
Take `O=C(CCCn1c(=O)c2sccc2n(Cc2ccc(Cl)cc2)c1=O)NCc1ccc2c(c1)OCO2`: the inhibition was 14.7%.
Turning to `Cc1ccc(CNc2ncccc2-c2nc(-c3ccc(Cl)cc3)no2)cc1`, the inhibition is -5.2%.
Regarding `CC1=C(c2ccc(Cl)cc2)S(=O)(=O)N=C1N1CCC(C(=O)NCCc2ccco2)CC1`, the inhibition is -22.1%.
Consider `CCOC(=O)c1ccccc1NC(=O)c1cc2c(s1)-c1ccccc1SC2`, for which the inhibition was -0.335%.
Consider `COc1ccc(Br)cc1CNC(=O)CCc1cn(Cc2ccc(C)cc2)c2ccccc12`, for which the inhibition was 14.4%.
With `COC(=O)c1sccc1S(=O)(=O)N1CCN(c2ccc(Cl)cc2)CC1` the figure was -6.81%; with `c1nc(COc2nsnc2N2CCOCC2)cs1`, active: 36.2%; with `CCOC(=O)N1CCc2c(sc3c2c(=O)n(Cc2ccccc2)c(=O)n3CC(=O)Nc2ccc(F)cc2)C1`, -16.5%.
To `CNC(=O)CN1C(=O)COc2ccc(S(=O)(=O)N3CCCCCC3)cc21` belongs 9.67%.
`CCN(CC)S(=O)(=O)c1ccc(OC)c(NC(=O)c2sc3ccccc3c2Cl)c1`: the inhibition amounted to 4.53%.
To `CN(c1ccc(F)cc1)S(=O)(=O)N1CCCC(C(=O)NCc2ccccc2Cl)C1` (stereo not given) belongs -14%.
Regarding `CC1CN(C(=O)CCC(=O)N2CCN(c3cccc(C(F)(F)F)c3)CC2)c2ccccc2O1` (stereo not given), the inhibition is active: 40.7%.
To `Cc1ccc2c(c1)c1c(c(=O)n(Cc3ccccc3)c(=O)n1Cc1ccccc1F)n2C` belongs -0.532%; to `Cc1cccc(NC(=O)c2oc3ccccc3c2NC(=O)c2cc(=O)c3ccccc3o2)c1`, -11.6%.

The values above are taken from PubChem BioAssay AID485344 (National Center for Advancing Translational Sciences (NCATS), 2010).
